From the antibiotic and cytotoxicity screens of Wong et al. (2023)
The other results are listed elsewhere or left out.

Test system: HSkMC (human skeletal muscle cells)
Assay: cytotoxicity call (relative viability < 0.9)
Details: 10 µM

**Q.** `Cc1noc(C)c1NC(=O)Nc1ccc2c(c1)C(=O)N([C@H](C)CO)C[C@H](C)[C@H](CN(C)CC1CCCCC1)OCCCC[C@H](C)O2` was tested. Which cytotoxicity call did it give?
**A.** inactive

**Q.** For `CC12CCC3C(=CCc4cc(O)ccc43)C1CCC2=O` (stereo not given), which cytotoxicity call is on record?
**A.** inactive

**Q.** How did the cytotoxicity call turn out when `COc1ccc(NC(=O)N(C)C[C@@H]2OCCCC[C@@H](C)Oc3ccc(NS(=O)(=O)c4ccc(F)cc4)cc3C(=O)N([C@H](C)CO)C[C@@H]2C)cc1` was run?
**A.** inactive

**Q.** `NC1(CC(=O)O)CCN(Cc2ccccc2)CC1` was tested. Which cytotoxicity call did it give?
**A.** inactive

**Q.** How did the cytotoxicity call turn out when `c1ccc(-c2nc(-c3cccs3)[nH]c2-c2ccccc2)cc1` was run?
**A.** inactive

**Q.** Which cytotoxicity call does the source give for `COc1ccccc1C#Cc1cnc2c(c1)C(=O)N([C@@H](C)CO)C[C@@H](C)[C@@H](CN(C)S(=O)(=O)c1cn(C)cn1)O2` here?
**A.** inactive

**Q.** Which cytotoxicity call does the source give for `Cn1cnc(S(=O)(=O)N2C[C@H](O)COC[C@@H]3O[C@H](CC(=O)NCc4ccc(F)cc4)CC[C@H]32)c1` here?
**A.** inactive

**Q.** For `N#C[C@@H]1C(=O)NC(=O)[C@@H](C#N)C12CCCC2`, which cytotoxicity call is on record?
**A.** inactive

**Q.** With `Cc1ccc(S(=O)(=O)N(C)C[C@@H]2Oc3ccc(NC(=O)Nc4ccc(C(F)(F)F)cc4)cc3CC(=O)N([C@@H](C)CO)C[C@H]2C)cc1` as the molecule, how does the cytotoxicity call read?
**A.** active

**Q.** For `N=C(N)NCCSC(=N)N`, which cytotoxicity call is on record?
**A.** inactive

**Q.** How did the cytotoxicity call turn out when `O=C(O)c1cccnc1C(=O)O` was run?
**A.** inactive

**Q.** `CCCN(CCC)CCc1cccc2c1CC(=O)N2.Cl` was tested. Which cytotoxicity call did it give?
**A.** inactive

**Q.** `C[C@@H]1CCCCO[C@H](CN(C)Cc2ccc(Cl)c(Cl)c2)[C@@H](C)CN([C@@H](C)CO)C(=O)c2cc(NC(=O)Cc3ccccc3)ccc2O1` was tested. Which cytotoxicity call did it give?
**A.** inactive

**Q.** `C[C@@H]1CN([C@@H](C)CO)C(=O)c2cc(NS(C)(=O)=O)ccc2O[C@H]1CN(C)Cc1ccc(C(=O)O)cc1` was tested. Which cytotoxicity call did it give?
**A.** inactive

**Q.** With `CC(C)NC(=O)Nc1ccc2c(c1)C(=O)N([C@H](C)CO)C[C@H](C)[C@H](CN(C)C(=O)Nc1ccc(F)cc1)OCCCC[C@@H](C)O2` as the molecule, how does the cytotoxicity call read?
**A.** inactive

**Q.** Which cytotoxicity call does the source give for `C[C@@H]1CCCCO[C@H](CN(C)Cc2ccccc2)[C@@H](C)CN([C@@H](C)CO)C(=O)c2cc(NC(=O)CCC(F)(F)F)ccc2O1` here?
**A.** inactive

**Q.** `CCS(=O)(=O)N1CCO[C@]2(COCCN(c3cncnc3)C2)C1` was tested. Which cytotoxicity call did it give?
**A.** inactive

**Q.** `CCNC(=S)N1CCOCC1` was tested. Which cytotoxicity call did it give?
**A.** inactive

**Q.** With `C[C@@H]1CN([C@@H](C)CO)C(=O)Cc2cc(NC(=O)CCC(F)(F)F)ccc2O[C@@H]1CN(C)C(=O)Nc1cccc2ccccc12` as the molecule, how does the cytotoxicity call read?
**A.** inactive

**Q.** How did the cytotoxicity call turn out when `Cc1ccc(-c2ccc3c(c2)O[C@@H](CN(C)C(=O)NC(C)C)[C@@H](C)CN([C@@H](C)CO)S3(=O)=O)cc1` was run?
**A.** inactive

**Q.** For `O=C(CCCCCNC(=O)OCc1ccc(CO[C@@H]2C[C@H](c3ccccc3)C=C(C(=O)N3CCN(Cc4ccccc4)CC3)O2)cc1)NO`, which cytotoxicity call is on record?
**A.** inactive

**Q.** `Cc1noc(C)c1NC(=O)Nc1ccc2c(c1)CC(=O)N([C@@H](C)CO)C[C@@H](C)[C@H](CN(C)CC1CC1)O2` was tested. Which cytotoxicity call did it give?
**A.** inactive

**Q.** For `C[C@@H]1CN([C@@H](C)CO)C(=O)c2cccc(NC(=O)NC3CCCCC3)c2O[C@@H]1CN(C)S(C)(=O)=O`, which cytotoxicity call is on record?
**A.** inactive

**Q.** Which cytotoxicity call does the source give for `C[C@@H]1CN([C@@H](C)CO)C(=O)c2cc(NC(=O)CCC(F)(F)F)ccc2O[C@H]1CN(C)C(=O)Nc1ccc(C(F)(F)F)cc1` here?
**A.** inactive

**Q.** How did the cytotoxicity call turn out when `Cl.NC(CO)C(=O)NNCc1ccc(O)c(O)c1O` (stereo not given) was run?
**A.** inactive

**Q.** For `CCS(=O)(=O)Nc1ccc2c(c1)C(=O)N(C)C[C@H](OC)[C@@H](C)CN(Cc1nccs1)[C@H](C)CO2`, which cytotoxicity call is on record?
**A.** inactive

**Q.** With `CCc1c(C)[nH]c(N2CCOCC2)nc1=O` as the molecule, how does the cytotoxicity call read?
**A.** inactive

**Q.** `C[C@@H]1CN([C@H](C)CO)C(=O)c2cccc(NC(=O)Nc3ccc(F)cc3)c2O[C@H]1CN(C)Cc1ccc(Cl)c(Cl)c1` was tested. Which cytotoxicity call did it give?
**A.** active

**Q.** For `C[C@@H]1CCCCO[C@@H](CN(C)C(=O)Nc2cccc3ccccc23)[C@H](C)CN([C@@H](C)CO)C(=O)c2cc(NS(=O)(=O)c3cn(C)cn3)ccc2O1`, which cytotoxicity call is on record?
**A.** inactive

**Q.** With `C[C@@H]1CN([C@@H](C)CO)S(=O)(=O)c2ccc(C#CC(C)(C)O)cc2O[C@@H]1CN(C)Cc1ccc(F)cc1` as the molecule, how does the cytotoxicity call read?
**A.** inactive

**Q.** Which cytotoxicity call does the source give for `COC(=O)c1cncn1C` here?
**A.** inactive

**Q.** With `C[C@@H]1CCCCO[C@@H](CN(C)Cc2ccc(C(=O)O)cc2)[C@@H](C)CN([C@H](C)CO)C(=O)c2cc(NC(=O)Cc3ccccc3)ccc2O1` as the molecule, how does the cytotoxicity call read?
**A.** inactive

**Q.** Which cytotoxicity call does the source give for `C[C@@H]1CCCCO[C@@H](CN(C)S(C)(=O)=O)[C@@H](C)CN([C@H](C)CO)C(=O)c2cc(NC(=O)c3ccncc3)ccc2O1` here?
**A.** inactive

**Q.** With `COc1ccc(S(=O)(=O)N2C[C@H](O)COC[C@@H]3O[C@H](CC(=O)NCCCN(C)C)CC[C@H]32)cc1` as the molecule, how does the cytotoxicity call read?
**A.** inactive

**Q.** How did the cytotoxicity call turn out when `C[C@H](CO)N1C[C@H](C)[C@H](CN(C)C(=O)c2ccccc2)OCCCC[C@H](C)Oc2ccc(NC(=O)CCC(F)(F)F)cc2C1=O` was run?
**A.** inactive

**Q.** Which cytotoxicity call does the source give for `COc1ccc(C(=O)Nc2ccc3c(c2)C(=O)N(C)[C@@H]2CC[C@@H](CC(=O)NCC4CC4)O[C@@H]2CO3)cc1` here?
**A.** inactive

**Q.** Which cytotoxicity call does the source give for `COC(=O)C12CC3(C(=O)OC)CC(C(=O)OC)(CC(C(=O)OC)(C1)C3=O)C2=O` here?
**A.** inactive

**Q.** `CCOC(=O)CCc1n[nH]c(=O)[nH]c1=O` was tested. Which cytotoxicity call did it give?
**A.** inactive

**Q.** For `C=CC[C@@H](CC(=O)N(CCO)Cc1ccccc1)C(=O)NC[C@H](OC(=O)[C@H](CC=C)NC(=O)OCC1c2ccccc2-c2ccccc21)c1ccccc1`, which cytotoxicity call is on record?
**A.** inactive

**Q.** With `O=C(/C=C/c1cc2c(cc1Br)OCCO2)c1c(-c2ccccc2)c2cc(Cl)ccc2[nH]c1=O` as the molecule, how does the cytotoxicity call read?
**A.** active
